Biological target: T1, PLXNB1_(1–2)(D139K) (human, UniProt O43157 20-535, D139K)
T1 sequence: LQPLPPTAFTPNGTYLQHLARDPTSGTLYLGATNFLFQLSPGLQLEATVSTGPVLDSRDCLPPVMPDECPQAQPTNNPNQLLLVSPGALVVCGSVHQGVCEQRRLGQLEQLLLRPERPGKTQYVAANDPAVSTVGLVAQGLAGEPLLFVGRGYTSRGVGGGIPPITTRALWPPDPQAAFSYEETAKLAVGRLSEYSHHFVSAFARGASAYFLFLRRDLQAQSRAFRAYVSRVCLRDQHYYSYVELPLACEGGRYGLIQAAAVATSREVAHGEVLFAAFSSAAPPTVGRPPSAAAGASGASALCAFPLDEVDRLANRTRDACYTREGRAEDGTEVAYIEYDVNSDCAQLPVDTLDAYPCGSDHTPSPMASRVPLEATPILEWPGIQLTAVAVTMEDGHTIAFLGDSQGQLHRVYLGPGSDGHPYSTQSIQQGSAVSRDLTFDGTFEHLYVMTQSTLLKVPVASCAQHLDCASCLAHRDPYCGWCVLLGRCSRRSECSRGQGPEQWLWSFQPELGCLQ
Assay: SPR

- fold weaker binding than wild type: > 9 fold
B1: human SEMA4D_(ecto), C-terminal His-tag (domain or fragment)
chain: not shown

Source: PMC3587840 (Nature, 2010)
